# Out of some 310,000 compounds screened, about 2,200 (0.71%) showed an effect of 50% or more. The effect is printed as a negative number. This is one part of the list.
# Molecular target: human ether-à-go-go-related gene (hERG) potassium channel (human, UniProt Q12809)
# Assay: primary screen, population patch clamp on CHO cells stably expressing hERG
# Sequence of human ether-à-go-go-related gene (hERG) potassium channel (Q12809 whole entry, looked up): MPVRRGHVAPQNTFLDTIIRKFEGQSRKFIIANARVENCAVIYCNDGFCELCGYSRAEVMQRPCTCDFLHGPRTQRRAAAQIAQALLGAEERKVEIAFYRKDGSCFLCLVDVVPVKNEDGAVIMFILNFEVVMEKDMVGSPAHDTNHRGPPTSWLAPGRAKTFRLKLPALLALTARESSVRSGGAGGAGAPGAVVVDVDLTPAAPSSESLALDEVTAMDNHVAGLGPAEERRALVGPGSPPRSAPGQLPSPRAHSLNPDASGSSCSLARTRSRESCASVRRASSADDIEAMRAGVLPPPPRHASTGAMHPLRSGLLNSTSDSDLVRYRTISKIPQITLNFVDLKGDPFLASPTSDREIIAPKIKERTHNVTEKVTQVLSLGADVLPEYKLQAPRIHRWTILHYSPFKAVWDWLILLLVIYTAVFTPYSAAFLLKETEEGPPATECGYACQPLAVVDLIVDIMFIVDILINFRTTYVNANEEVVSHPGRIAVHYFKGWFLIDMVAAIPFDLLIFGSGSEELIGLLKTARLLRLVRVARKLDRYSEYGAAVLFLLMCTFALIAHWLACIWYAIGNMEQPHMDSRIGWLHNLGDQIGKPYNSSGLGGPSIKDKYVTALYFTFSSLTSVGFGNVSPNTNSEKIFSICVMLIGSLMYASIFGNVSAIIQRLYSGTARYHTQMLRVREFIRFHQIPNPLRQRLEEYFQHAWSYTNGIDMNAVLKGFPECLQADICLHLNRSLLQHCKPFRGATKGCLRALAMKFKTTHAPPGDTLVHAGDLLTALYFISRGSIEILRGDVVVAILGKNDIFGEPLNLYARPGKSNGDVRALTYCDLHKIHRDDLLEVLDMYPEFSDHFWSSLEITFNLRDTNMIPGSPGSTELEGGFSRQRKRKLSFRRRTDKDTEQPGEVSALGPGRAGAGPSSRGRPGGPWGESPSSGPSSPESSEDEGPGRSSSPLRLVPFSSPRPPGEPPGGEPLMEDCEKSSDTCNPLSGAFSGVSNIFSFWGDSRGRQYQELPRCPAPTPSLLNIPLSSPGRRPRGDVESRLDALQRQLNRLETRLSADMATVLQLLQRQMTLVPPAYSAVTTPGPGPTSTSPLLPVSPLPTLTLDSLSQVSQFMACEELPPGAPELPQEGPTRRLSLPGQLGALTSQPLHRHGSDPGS
row,Structure (SMILES),"hERG current change (%, negative = inhibition) at 1uM [%]"
1,Brc1ccccc1-c1nnc(CSc2nnc3sc4ccccc4n23)o1,-3.6
2,Cc1oc(-c2cc(F)ccc2F)nc1CN(C)Cc1ccc2nccnc2c1,5.06
3,CC(=O)Nc1ccccc1C(=O)OCc1ccc(C(=O)c2ccccc2)cc1,4.46
4,O=C(Nc1cc2c3c(c1)CC(=O)N3CCC2)c1ccccc1C(F)(F)F,-0.0117
5,COc1cc(OC)cc(C(=O)Nc2ccc(-n3cnnn3)c(C)c2)c1,-0.326
6,O=[N+]([O-])c1cccc(CN2CC=C(c3ccc(F)cc3)CC2)c1,13.3
7,O=[N+]([O-])c1ccc2nc(-c3ccc(Cl)cc3)[nH]c2c1,7.59
8,COc1ccc(OC)c(S(=O)(=O)N2CCC(C(=O)NC3CC3)CC2)c1,8.35
9,O=C(CCn1c(=S)[nH]c2ccccc2c1=O)NCCCN1CCCC1=O,-18.9
10,COc1ccccc1N1CCN(C2CCCN(C(=O)c3snnc3C)C2)CC1 (stereo not shown),11.4
11,CN1CCC(=O)N([C@H](CSc2ccccc2)Cc2ccccc2)CC1,-21.6
12,COC(=O)c1ccc(C2CC(=O)NC3=C2C(=O)CCC3)cc1 (stereo not shown),2.4
13,Cc1nonc1NC(=O)CSc1nnc(-c2ccoc2C)n1C,9.71
14,COc1cccc(NC(=O)CN(C)C(=O)c2ccccc2OCC(=O)Nc2cccc(C(F)(F)F)c2)c1,3.79
15,COc1ccccc1C(=O)Nc1ccncc1,11.4
16,COC(=O)C1=CO[C@@H](C)[C@H]2CN3CC[C@]4(C(=O)Nc5ccccc54)[C@@H]3C[C@H]12,16.5
17,CCN(CCNC(=O)c1cccc(N2CCCC2=O)c1)c1ccccc1,-5.98
18,C/C=C1\COC(C(=O)NCCN2CCCC2)(C(F)(F)F)C=C1C=C1CCCCC1 (stereo not shown),12
19,CC1(C)CC(=O)C2=C(C1)NC(=O)NC2c1ccc([N+](=O)[O-])cc1 (stereo not shown),12.8
20,CCOc1ccc(C(=O)NCC(=O)OCCCOC(=O)CNC(=O)c2ccc(OCC)cc2)cc1,1.84
21,CCN(C(=O)c1cnc2scc(C)n2c1=O)c1ccccc1C,7.95
22,Cn1c(N)c(C(=O)CSc2ncn[nH]2)c(=O)n(C)c1=O,17.1

row,Structure (SMILES),"hERG current change (%, negative = inhibition) at 1uM [%]"
1,COc1ccc(/C=C(\NC(=O)c2ccc(OC)cc2)C(=O)Nc2ccc(C(=O)O)cc2)cc1,11
2,COc1ccc(OC)c(NC(=O)Cn2cccc2)c1,-4.61
3,CCCn1cc(SCC(=O)NCc2ccco2)c2ccccc21,-4.79
4,CCOC(=O)Cc1c(C)c2c(C)[nH]nc2oc1=O,-4.5
5,CC1CCN(Cc2nnnn2CCCC(=O)N(C)C(C)c2ccccn2)CC1 (stereo not shown),18.2
6,Cc1ccc(/C=C/C(=O)OCC(=O)NC(=O)NCc2ccccc2)cc1,16.4
7,O=C(Nc1c(C(=O)N2CCOCC2)oc2ccccc12)c1cccc([N+](=O)[O-])c1,11.4
8,Cn1c(=O)[nH]c(=O)c2c1nc(N1CCCC1)n2CCO,13.2
9,CCCCOC(=O)c1cc(=O)[nH]c2ccccc12,-6.46
10,Cc1cc(SCC(=O)[O-])nc2ccccc12,19
11,C=CCn1c(SCc2c(C)noc2C)nc2sc3c(c2c1=O)CCC(C)C3 (stereo not shown),7.39
12,CCc1nc2ccccc2n(CC)c1=O,11.6
13,CC(NC(=O)c1cc2c(=O)n3ccccc3nc2n(CC2CCCO2)c1=N)c1ccccc1 (stereo not shown),-72.3
14,O=C(CSc1nnnn1-c1cccc2c1CCCC2)NC1CCCC1,13.7
15,COc1cc2c(C#N)c(N3CCCCC3)nc(N)c2c(N)n1,0.442
16,CN(C)c1nc(N)c([N+](=O)[O-])c(N2CCCCCC2)n1,7.23
17,CCCCn1c(N)c(N(CCOC)C(=O)CSc2nnc(-c3ccc(C(C)(C)C)cc3)n2N)c(=O)[nH]c1=O,2.18
18,CCCn1c(SCC(=O)Nc2nonc2C)nnc1-c1ccoc1C,5.83
19,OCc1cn(-c2ccc(Cl)cc2)nn1,14.3
20,O=C(Nc1cccc(Cl)c1)c1ccccc1NC(=O)C1CCCCC1C(=O)O (stereo not shown),15.1
21,Cc1c(Nc2cc(=O)oc3ccccc23)c(=O)n(-c2ccccc2)n1C,3.85
22,COc1ccc(NC(=O)c2c(-c3c(Cl)cccc3Cl)noc2C)c(OC)c1,9.37

row,Structure (SMILES),"hERG current change (%, negative = inhibition) at 1uM [%]"
1,O=C(Nc1ncc(Cc2cc(Cl)ccc2Cl)s1)c1ccc([N+](=O)[O-])cc1,10.5
2,CCCCCCn1cc(C(=O)O)c(=O)c2cc(F)c(N3CCCCC3)cc21,14
3,O=C(CNC(=S)NC(=O)c1ccccc1Br)c1ccccc1,10.2
4,O=C1CC(c2ccncc2)c2cc3c(cc2N1)OCO3 (stereo not shown),19.6
5,NS(=O)(=O)c1ccc(NCc2cc(Cl)ccc2OCc2ccccc2F)cc1,-1.22
6,O=C(NCCc1ccccn1)c1ccc(OC2CCN(CCc3ccccc3)CC2)cc1,-4.54
7,OCC1(Cc2cccc(F)c2)CCN(Cc2ccc3cccc(F)c3n2)CC1,-14.2
8,COc1ccc(CN(CC(=O)NCC2CCCO2)C(=O)CNS(=O)(=O)c2ccccc2)cc1 (stereo not shown),13.7
9,O=C(NCC(c1ccco1)N1CCCC1)c1cccc(S(=O)(=O)Nc2ccc(F)cc2)c1 (stereo not shown),-0.605
10,Cc1c(-n2c(SCC(N)=O)nc3ccccc3c2=O)c(=O)n(-c2ccccc2)n1C,8.83
11,COc1ccccc1N1C(=S)NC2CS(=O)(=O)CC21 (stereo not shown),16.7
12,Oc1ccc(CCC2CCCCN2Cc2nc(C3CC3)no2)cc1 (stereo not shown),12.7
13,CCN(CC)S(=O)(=O)c1ccc(C(=O)NCC2(N3CCOCC3)CCCCC2)cc1,-4.49
14,CCn1nc(C(=O)Nc2cccc(S(=O)(=O)N3CCCC3)c2)c2ccccc2c1=O,-1.81
15,Cc1c(C(=O)O)cccc1-c1ccc(/C=N/Nc2ccc(Br)cc2)o1,16.1
16,CCOC(=O)CC1C(=O)NCCN1Cc1cccc(OC)c1 (stereo not shown),15.5
17,O=C(O)c1cccc(S(=O)(=O)N2CCc3ccccc3C2)c1,12.9
18,CC(=O)c1ccc(NC(=S)Nc2ccc3[nH]c(=O)[nH]c3c2)cc1,12.6
19,O=C(NCC(c1cccnc1)N1CCOCC1)C1CCCCC1 (stereo not shown),2.28
20,CS(=O)(=O)N1CCN(C(=O)Cc2ccccc2)CC1,10.3
21,Cc1ccc(-n2c(C)cc(/C=C3/C(=N)N4C(c5ccccc5)=CSC4=NC3=O)c2C)cc1,4.49
22,O=C(COC(=O)c1cc2ccccc2cc1O)NC(=O)NCc1ccco1,14.9

row,Structure (SMILES),"hERG current change (%, negative = inhibition) at 1uM [%]"
1,CC(C)OC(=O)C1C(=O)CC(C)(O)C(C(=O)OC(C)C)C1c1cccnc1 (stereo not shown),19.9
2,O=[N+]([O-])c1ccc(/C=N/Nc2ncccc2[N+](=O)[O-])s1,10.6
3,COc1ccc(S(=O)(=O)N2CCN(C(=O)Nc3ccccc3OC)CC2)cc1,8.98
4,CCn1ncc(S(=O)(=O)NCc2ccco2)c1C,8.81
5,COc1ccc(-c2ccc(OC)c([C@H]3[C@H]4C=CC[C@@H](C)[C@@H]4C(=O)N3Cc3ccccc3)c2)cc1OC,13
6,CCOc1cc2[nH]c(=S)n(CCC(=O)N3CCc4ccccc4C3)c(=O)c2cc1OCC,-0.166
7,O=C(Cc1coc2ccc3ccccc3c12)N1CCc2ccccc21,7.35
8,CCOC(=O)C1C(c2ccc(OC)cc2)N(C)OC1(O)C(F)(F)F (stereo not shown),15.8
9,Cl.O=C1c2ccccc2-c2cccnc21,15.3
10,CCOc1ccc(OCCC(=O)NNC(=O)c2ccccc2Cl)cc1,5.15
11,Cc1ccccc1OCCN1CCC(Cc2ccccc2)CC1.O=C(O)C(=O)O,-10
12,CCOC(=O)N1CCN(C(=O)c2cc3c(-c4cccc(OC)c4)nn(C)c3s2)CC1,9.68
13,O=C(CN1C(=O)NC2(CCCC2)C1=O)OCCOc1cccc(Cl)c1,8.78
14,O=C(O)C(=O)/C(=C\c1ccsc1)c1ccc2ccccc2n1,13.4
15,CN(C)c1cc(-c2ccccc2)nc(-c2ccccc2)n1,14.1
16,Cn1nc(C(F)(F)F)c(-c2cccc(C(F)(F)F)c2)c1NC(=O)c1nccnc1C(=O)O,12.1
17,CN(C)S(=O)(=O)c1ccc(C(=O)Nc2ccccc2SCCC#N)cc1,0.708
18,O=C(CSc1nc2ccccc2c(=O)n1CC1CCCO1)NCc1ccccc1 (stereo not shown),8.6
19,O=C(O)/C=C/C(=O)OC1CC2CCC1C2 (stereo not shown),9.88
20,COc1ccc(O)c(/C=N\NC(=O)CCn2nnc3ccccc32)c1,3.01
21,CC1CN(C(=O)COC(=O)Cc2c(F)cccc2Cl)CC(C)O1 (stereo not shown),10.1
22,COc1ccc(NC(=O)c2cccc(F)c2)cc1Cl,9.26

# From article PMC4336329 (PLoS ONE, 2015)
